Data: paper PMC4336329 (PLoS ONE, 2015)
Hit rate of the full screen: of about 310,000 compounds, about 14,000 (4.5%) showed an effect of 50% or more. Effects have a minus sign here. This is one part of the list.

The compounds below were run against human ether-à-go-go-related gene (hERG) potassium channel (human, UniProt Q12809) (assay: primary screen, population patch clamp on CHO cells stably expressing hERG).
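Also: peak tail current of the secondary pulse compared with the same well before compound.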

Sequence of human ether-à-go-go-related gene (hERG) potassium channel (Q12809 whole entry, looked up): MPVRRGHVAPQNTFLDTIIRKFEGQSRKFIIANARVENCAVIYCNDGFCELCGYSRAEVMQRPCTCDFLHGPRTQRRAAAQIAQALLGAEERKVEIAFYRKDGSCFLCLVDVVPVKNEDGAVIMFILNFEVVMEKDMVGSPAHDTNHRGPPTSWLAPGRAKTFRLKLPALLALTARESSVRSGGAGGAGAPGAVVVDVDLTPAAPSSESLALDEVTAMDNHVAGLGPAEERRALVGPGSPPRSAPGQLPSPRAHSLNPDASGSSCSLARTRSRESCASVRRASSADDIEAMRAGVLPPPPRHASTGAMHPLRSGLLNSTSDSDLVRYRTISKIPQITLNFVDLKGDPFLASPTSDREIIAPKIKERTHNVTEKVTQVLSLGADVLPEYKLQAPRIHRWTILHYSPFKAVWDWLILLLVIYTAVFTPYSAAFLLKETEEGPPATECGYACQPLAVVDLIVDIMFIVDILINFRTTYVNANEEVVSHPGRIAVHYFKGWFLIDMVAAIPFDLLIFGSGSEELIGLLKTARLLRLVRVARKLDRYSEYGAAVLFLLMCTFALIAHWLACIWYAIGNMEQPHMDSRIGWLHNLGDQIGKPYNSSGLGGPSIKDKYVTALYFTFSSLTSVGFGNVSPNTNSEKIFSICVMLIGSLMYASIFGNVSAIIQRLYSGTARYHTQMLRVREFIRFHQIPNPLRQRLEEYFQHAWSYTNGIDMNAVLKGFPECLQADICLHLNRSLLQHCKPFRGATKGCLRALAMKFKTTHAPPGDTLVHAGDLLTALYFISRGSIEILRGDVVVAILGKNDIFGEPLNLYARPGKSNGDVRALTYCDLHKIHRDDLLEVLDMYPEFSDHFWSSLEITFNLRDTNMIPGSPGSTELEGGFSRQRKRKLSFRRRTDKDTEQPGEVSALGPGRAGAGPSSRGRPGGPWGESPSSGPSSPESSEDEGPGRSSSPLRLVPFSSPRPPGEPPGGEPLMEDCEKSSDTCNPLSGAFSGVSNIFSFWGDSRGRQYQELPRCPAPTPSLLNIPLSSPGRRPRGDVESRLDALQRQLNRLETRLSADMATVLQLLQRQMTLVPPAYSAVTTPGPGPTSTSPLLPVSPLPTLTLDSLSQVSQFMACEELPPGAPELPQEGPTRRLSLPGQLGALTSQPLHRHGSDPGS

| Compound | hERG current change (%, negative = inhibition) at 10uM |
| --- | --- |
| c1coc(CNc2c3c(nc4ccccc24)CCC3)c1 | -78.7% |
| Cc1ccc(S(=O)(=O)NNC(=O)C(O)(c2ccccc2)c2ccccc2)cc1 | 1.02% |
| CC1CCN(C(=O)CCCOc2cc(=O)n(C)c3ccccc23)CC1 | -20.7% |
| O=C(CCC(=O)N(CC(=O)NC1CCCCC1)c1ccc(F)cc1)Nc1nccs1 | -73.7% |
| COc1ccc(-c2cc(C(=O)Nc3cccnc3)no2)cc1OC | 24.8% |
| CCOC(=O)c1[nH]c(C)c(C(=O)Nc2ccc(Cl)cc2)c1C | 2.31% |
| CC(=O)c1ccc(NC(=O)CN2C(=O)NC(C)(C3CCCCC3)C2=O)cc1 (centres unmarked) | -3.52% |
| Cc1nc(C)n(CC(C)C(=O)N2CCN(S(=O)(=O)c3ccc(Cl)cc3)CC2)n1 (centres unmarked) | -45.9% |
| Cc1cnc(C(=O)Nc2ccc(N3CCCCC3)cc2)cn1 | 3.81% |
| COc1ccccc1N1CCN(C(=O)CN2C(=O)c3ccccc3C2=O)CC1 | 11.9% |
| COc1cccc(C(=O)/C=C/c2ccc(OCC#N)c(OC)c2)c1 | -21.8% |
| CSc1nnc(C(C)(C)C)c(=O)n1/N=C/c1c(O)ccc2ccccc12 | 9.57% |
| CC1CC(=O)Nc2ccccc2N1C(=O)COc1cc(Cl)ccc1Cl (centres unmarked) | -1.31% |
| OC(c1nc2ccccc2[nH]1)C(O)C(O)C(O)c1nc2ccccc2[nH]1 (centres unmarked) | 10.5% |
| Cc1cc(C)n2nc(CC(=O)NC3CCCCCCC3)nc2n1 | -70.9% |
| CN(C)S(=O)(=O)c1cccc(NC(=S)NC(=O)C2CCCCC2)c1 | -10.6% |
| Cc1ccc(C)c(N2CN(Cc3ccco3)CNC2=S)c1 | 3% |
| O=C(CN1C(=O)c2ccccc2S1(=O)=O)NCCSCc1ccccc1Cl | -4.19% |
| Cc1ccccc1OCC(=O)N/N=C/c1cccc2cccnc12 | -1.48% |
| O=C1CC(c2cccnc2)c2cc3c(cc2N1)OCO3 (centres unmarked) | 44% |
| Cc1cc(C)cc(NC(=O)c2c(C)nc3ccccn23)c1 | 8.9% |
| O=c1oc2ccccc2c(NCCO)c1[N+](=O)[O-] | 16.5% |
| CCN(CC)CCOC(=O)c1ccc(NC(=O)COc2cc(=O)n(CC)c3ccccc23)cc1 | -2.13% |

| Compound | hERG current change (%, negative = inhibition) at 10uM |
| --- | --- |
| COc1ccc(S(=O)(=O)N2CCCC2)cc1OC | 14.9% |
| Cc1ccc2c(c1)C1CN(C)CCC1N2S(=O)(=O)c1ccccc1 (centres unmarked) | -32.4% |
| CCCNC(=O)COC(=O)C1CCN(S(=O)(=O)c2ccc3c(c2)OCCO3)CC1 | 7.17% |
| COc1ccccc1-n1c(CNC(=O)c2ccco2)n[nH]c1=S | 25% |
| O=C(CSc1nnc(-c2ccccc2)c(-c2ccccc2)n1)N1CCc2ccccc21 | 6.08% |
| CCn1c(SCC(=O)c2ccccc2)nnc1-c1cccs1 | -14.8% |
| Cc1ccccc1C(=O)NCC(C)NC(=O)c1ccccc1C (centres unmarked) | 9.27% |
| CN(CCOc1ccc(Cl)cc1)C(=O)c1cc(S(=O)(=O)N2CCOCC2)ccc1N1CCCC1 | -63.7% |
| O=C(Cc1ccc(Cl)cc1)NNC1CC(=O)N(c2ccc3ccccc3c2)C1=O (centres unmarked) | 3.98% |
| Cc1cc(Br)ccc1NC(=O)CNC(=O)c1cnn(C)c1 | 19.6% |
| Cc1ccc(S(=O)(=O)N2CCCCC2)cc1 | 34.5% |
| CC(C)(C)OC(=O)c1c(N)n(CCCN2CCCC2=O)c2nc3ccccc3nc12 | -18.4% |
| CC(=O)Nc1ccc(S(=O)(=O)Nc2ccc3c(c2)OCCO3)cc1Cl | 15.5% |
| O=[N+]([O-])c1ccccc1/C=N/NC1=NCCN1 | 7.6% |
| COc1cc(Cl)c(C)cc1NC(=O)CSc1nnc(-c2cccnc2)n1Cc1ccco1 | -56.9% |
| C/C(=N/NC(=O)c1ccc(C)s1)c1cccc(NC(=O)c2ccoc2C)c1 | -10.2% |
| [O-][n+]1c2ccccc2cc2ccccc21 | 4.02% |
| CCCCC(=O)Nc1nc(C)c(-c2csc(Nc3ccc(Cl)cc3)n2)s1 | -7.01% |
| Cc1cccc(NS(=O)(=O)c2cccc(C(=O)NCC(c3ccco3)N3CCCCC3)c2)c1 (centres unmarked) | -27.9% |
| CC1Cc2nc(SCC(=O)Nc3ccccc3F)n(C)c(=O)c2S1 (centres unmarked) | -20.2% |
| CC1CCCN(C(=O)CN2CCC(c3nc4ccc(Cl)cc4[nH]3)CC2)C1 (centres unmarked) | -67.8% |
| CCn1cc(/C=C(\NC(=O)c2ccccc2OC)C(=O)N2CCN(C)CC2)c2ccccc21 | 0.113% |
| Cc1cc(NC(=O)COc2ccccc2)n(-c2ccccc2)n1 | -22.7% |

| Compound | hERG current change (%, negative = inhibition) at 10uM |
| --- | --- |
| CC(=O)OC(C)C(=O)NS(=O)(=O)c1ccc(C)cc1 (centres unmarked) | 12.3% |
| COC(c1ccccc1)(c1ccccc1)C(Oc1nccc(C)n1)C(=O)O (centres unmarked) | 23.2% |
| COc1ccc(/C(C)=N/N=C2/NC(=O)CC(C(=O)O)S2)cc1F (centres unmarked) | 21% |
| Cc1c(C(=O)N2CCCCC2)c(S(=O)(=O)N2c3ccccc3CC2C)c(C)n1C (centres unmarked) | -9.7% |
| O=C(CSc1nnc(Cn2nnc3ccccc32)o1)Nc1ccc(Cl)cc1 | 11.2% |
| COc1cc(NC(=O)CN2c3cccc4cccc(c34)S2(=O)=O)cc(OC)c1OC | 7% |
| Cc1ccc(Cn2cc(SCC(=O)Nc3nccs3)c3ccccc32)cc1 | 7.21% |
| Nc1cc(=O)[nH]c(SCC(=O)Nc2ccc(S(=O)(=O)N3CCCCC3)cc2)n1 | 12.6% |
| CCn1nc(NC(=O)CC(C)C)c2cc3cccc(C)c3nc21 | 15.2% |
| Cc1ccc(NC(=O)c2cc(S(=O)(=O)c3ccccc3)ccc2Cl)cc1 | -15.4% |
| O=C(NC1CCSC1=O)c1ccc(Oc2ccc(F)cc2)nc1 (centres unmarked) | 11.8% |
| CCCNC(=O)CSc1ccc(S(=O)(=O)N2CCCC2)cn1 | 6.44% |
| Cc1ccccc1CN(c1ccc(C(=O)N/N=C/c2ccc(OCC(N)=O)cc2)cc1)S(C)(=O)=O | 5.85% |
| Cn1c(=O)c2c(-c3ccc(C(C)(C)C)cc3)n(CC3CCCO3)cc2n(C)c1=O (centres unmarked) | -7.98% |
| N#CC1=C(S)N(c2ccccc2)C2(CCCCC2)NC1=O | 4.38% |
| C/C(CCC(C)C)=N\NC(=S)NCc1ccccc1 | -17% |
| O=C(O)c1nc2nc(Cl)c(Cl)nc2[nH]1 | 21.5% |
| COc1ccc2cc(-c3ccccc3)c(=O)oc2c1 | 18% |
| C=CCSC1=C(C#N)C(c2ccccc2Cl)CC(=O)N1 (centres unmarked) | -3.4% |
| CCN(CC)c1cnn(C/C(=N\OC)c2ccc(Cl)cc2)c(=O)c1Br | -34.4% |
| CCOC(=O)Cn1c(=O)oc2cc(S(=O)(=O)Nc3cc(Cl)ccc3OC)ccc21 | -0.0761% |
| Nc1ccccc1SCC(=O)Nc1cccc2ccccc12 | 11.1% |
| COc1cc(Cl)c(C)cc1NC(=O)CCNC(=O)c1ccco1 | 9.27% |

| Compound | hERG current change (%, negative = inhibition) at 10uM |
| --- | --- |
| COC1=CC(=O)C(O)=C(CCCCCCC/C=C/CCCCCCCC2=C(O)C(=O)C=C(OC)C2=O)C1=O | -3% |
| O=C(O)c1ccccc1/C=N/NC(=S)NC1CCCCC1 | 11.4% |
| COc1ccc(-c2cc(C(F)F)n3ncc(C(=O)N4CCc5ccccc54)c3n2)cc1 | 5.39% |
| Nc1cccn2c(-c3ccc(Cl)c(Cl)c3)cnc12 | 1.82% |
| COc1ccc(C2(C#N)CCN(C)CC2)cc1.Cl | -18.6% |
| COc1ccccc1CNC(=O)c1oc2ccccc2c1C | -13.1% |
| O=C(/C=C/c1ccc(F)cc1)NCCCN1CCN(CCCNC(=O)/C=C/c2ccc(F)cc2)CC1 | -73.2% |
| O=C(Nc1ccccc1NC(=O)C1CCCO1)c1ccco1 (centres unmarked) | -5.46% |
| C=CCn1ccc2c([N+](=O)[O-])cccc2c1=O | -32.2% |
| COC(=O)CC1=C(C(=O)OC)C(c2cccc(OCC(N)=O)c2)C(C#N)=C(N)O1 (centres unmarked) | 7.33% |
| O=C(NC(=S)Nc1cccc(Cl)c1N1CCOCC1)c1cccs1 | 27.3% |
| COc1ccc(S(=O)(=O)N2CCCC2)cc1C(=O)N1CCCCC1 | 16.9% |
| Cc1cc(C)cc(-n2ncc3c2CCCC3NC(=O)CCN2Cc3ccccc3C2=O)c1 (centres unmarked) | -54.3% |
| COc1ccccc1S(=O)(=O)NCc1ccc(C(=O)NC(C)c2ccccn2)cc1 (centres unmarked) | 15.5% |
| CN1CCCN(S(=O)(=O)c2ccc3c(c2)OCCO3)CC1 | 8.07% |
| O=C(CCl)NNC(=O)c1c(O)c2ccccc2[nH]c1=O | 8.53% |
| CC(C)C(C)NC(=O)Cn1cnc2c(oc3ccccc32)c1=O (centres unmarked) | -9.02% |
| COc1ccc(Br)cc1C(=O)NC(=S)Nc1ccc(CN2CCOCC2)cc1 | 7.79% |
| Cc1cc(SCC(=O)N/N=C/c2ccccc2C(=O)O)c(C)cc1Br | 12.7% |
| C=CCOC(=O)C1=C(C)NC(=O)NC1c1cn(-c2ccccc2)nc1-c1cccs1 (centres unmarked) | -4.51% |
